Data: the supplement of paper PMC10723795
Counter-ions that a name gives are not always drawn. Some of the results follow.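 Rule for the calls: active = more than 2 SD below the DMSO mean: under 0.85 at 10 µM or 0.885 at 1 µM; inactive = the rest.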 Most values come without repeats; read them as rough.

System: RPE1
Assay: nucleolar normality score relative to DMSO (fraction of DMSO control); RPE1 is a non-cancer human cell line; higher = more normal nucleoli (less nucleolar stress)
Settings: 24 h
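Note: fixed cells immunolabelled for nucleolin and UBF, 40 image fields per well in 384-well plates, per-cell score = nucleolin nucleolar/nucleoplasm intensity ratio divided by the matching UBF ratio.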

| SMILES | nucleolar normality score (1 µM) | nucleolar normality score (10 µM) |
| --- | --- | --- |
| CC(C)NC(=O)C1CCC(n2c(NC(=O)c3ccc(F)cc3)nc3ccc(CN4CCC(C(C)(C)O)CC4)cc32)CC1 (stereo not given) [Belizatinib (TSR-011)] | inactive: 1.04 | inactive: 1.07 |
| N#C/C(=C(/N)Sc1ccc(N)cc1)c1ccccc1C(F)(F)F | inactive: 1.02 | inactive: 1.08 |
| CCCc1ccc(OCC(=O)N(Cc2nc(-c3cccnc3)no2)C(C)C)cc1 | inactive: 0.905 | inactive: 0.96 |
| CNC(=O)c1ccc(N2C(=S)N(c3ccc(C#N)c(C(F)(F)F)c3)C(=O)C2(C)C)cc1F [Enzalutamide (MDV3100)] | inactive: 1.06 | inactive: 1.14 |
| CC(=O)Nc1nc(-c2cccc(NS(=O)(=O)c3cccc4c(N(C)C)cccc34)c2)cs1 | inactive: 1.01 | inactive: 1.01 |
| COC(=O)[C@H](CC(C)C)NC(=O)c1ccc(NC[C@@H](N)CS)cc1-c1cccc2ccccc12 [GGTI 298 TFA salt] | inactive: 0.952 | inactive: 0.987 |
| CC#C[C@]1(O)CC[C@H]2[C@@H]3CCC4=CC(=O)CCC4=C3[C@@H](c3ccc(N(C)C)cc3)C[C@@]21C [Mifepristone] | inactive: 1.09 | inactive: 1.1 |
| CC[C@@H]1C(=O)N(C)c2cnc(Nc3ccc(C(=O)N[C@H]4CC[C@H](N5CCN(CC6CC6)CC5)CC4)cc3OC)nc2N1C(C)C [Volasertib (BI 6727)] | inactive: 0.949 | inactive: 0.93 |
| COC(=O)N[C@@H](C)CNc1nccc(-c2cn(C(C)C)nc2-c2cc(Cl)cc(NS(C)(=O)=O)c2F)n1 [Encorafenib (LGX818)] | inactive: 1 | active: 0.838 |
| CC(O)c1cc(C(=O)N[C@@H](C)Cn2ccc(-c3ccc(C#N)c(Cl)c3)n2)n[nH]1 (stereo not given in full) [Darolutamide (ODM-201)] | inactive: 1.02 | inactive: 1.04 |
| CCCCCCNC(=O)n1cc(F)c(=O)[nH]c1=O [Carmofur] | inactive: 0.911 | inactive: 1.06 |
| COc1cccc2c1C(=O)c1c(O)c3c(c(O)c1C2=O)C[C@@](O)(C(=O)CO)C[C@@H]3O[C@H]1C[C@H](N)[C@H](O[C@@H]2CCCCO2)[C@H](C)O1 [Pirarubicin] | active: 0.259 | active: 0.166 |
| COCCCc1sc(-c2ccccc2)nc1C(=O)Nc1ccccc1-c1nc2cc(CN3CCCC3)cnc2s1 | inactive: 0.994 | inactive: 1.01 |
| CCOC(=O)C1=C(N)Oc2ccc(Cl)cc2C1C(C#N)C(=O)OCC (stereo not given) | inactive: 1 | inactive: 0.977 |
| Cc1nc(C(=O)NCC(=O)O)c(O)c2ccc(Oc3ccccc3)cc12 [Roxadustat (FG-4592)] | inactive: 0.934 | inactive: 1.08 |
